From the supplement of paper PMC4723716 come the findings set out here.

± gives the uncertainty stated by the source. Over roughly 9,900 compounds, “viability index relative to DMSO control” has its median near 1; the lowest 2% begin near 0.85. The list shows a part of the results.

This assay concerns Plasmodium falciparum NF54 stage V gametocytes. Description: viability index relative to DMSO control (fraction); higher = less gametocyte killing. Particulars: 2.5 µM, library set: Broad Institute DOS, incubation time: 72 h. The method in brief: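 P. falciparum NF54 stage V gametocytes in serum-free screening medium (0.75% gametocytemia, 1.25% hematocrit, 10 µl) were incubated with compound at 2.5 µM in 1,536-well plates for 72 hr at 37°C under low oxygen. Then 3 µl of 2.5 µM MitoTracker Red CMXRos plus 0.13% saponin was added for one to two hours. One field per well was imaged, 20–70 µm2 red particles were counted, and the viability index was the count divided by the plate mean of DMSO wells.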
For the compound `CCc1cnc(N2[C@H](CO)[C@H](c3ccc(C4=CCCCC4)cc3)[C@@H]2C#N)s1`, the viability index stood at 1.09 ± 0.14. Turning to `COc1ccccc1CNC(=O)C[C@@H]1C[C@@H]2c3cc(NC(=O)C4CCC4)ccc3O[C@@H]2[C@H](CO)O1`, the viability index turned out to be 0.961 ± 0.0032.

Compound `O=C(C[C@@H]1C=C[C@@H](NC(=O)Nc2cccc(F)c2)[C@H](CO)O1)NCC1CCCCC1` showed a viability index of 0.927 ± 0.071. For the compound `CO[C@H]1CN(C)C(=O)c2cc(NC(=O)Nc3c(C)noc3C)ccc2OC[C@H](C)NC[C@@H]1C`, the viability index is 0.983 ± 0.071. Under `C[C@H](CO)N1C[C@H](C)[C@@H](CN(C)Cc2ccccc2)Oc2c(NC(=O)Cc3cn(C)c4ccccc34)cccc2C1=O` stands 0.744 ± 0.038. In the case of `C[C@H](CO)N1C[C@H](C)[C@@H](CN(C)C(=O)NC2CCCCC2)OCCCC[C@H](C)Oc2ccc(N(C)C)cc2C1=O`, the viability index amounted to 1.06 ± 0.013.

The compound `O=C(Nc1ccc(F)cc1)N1CC(=O)N2[C@H](CO)[C@@H](c3ccc(C4=CCCC4)cc3)[C@H]2C1` returned a viability index of 1.05 ± 0.02. The result for `C[C@H](CO)N1C[C@H](C)[C@@H](CN(C)Cc2ccc(C(=O)Nc3ccccc3N)cc2)OCc2cnnn2CCCC1=O` reads 0.997 ± 0.034. The result for `CCCN1[C@@H]2c3ccc(-c4cccc(OC)c4)c(=O)n3C[C@@H]2[C@@H](CO)[C@@H]1C(=O)OC` reads 1.02 ± 0.087. The result for `COc1ccc2c3c([nH]c2c1)[C@@H](CO)N(Cc1ccccn1)C[C@]31CN(C1)C(=O)CC1CC1` reads 0.958 ± 0.032. Regarding `O=C(NCC[C@H]1CC[C@H](NS(=O)(=O)c2ccc(F)cc2)[C@H](CO)O1)c1ccc2c(c1)OCO2`, the viability index was determined as 0.931 ± 0.07. The result for `C[C@@H]1CCCCO[C@@H](CN(C)S(C)(=O)=O)[C@@H](C)CN([C@H](C)CO)C(=O)c2cc(NC(=O)NC3CCCCC3)ccc2O1` reads 1.1 ± 0.019; that for `CCC(=O)N1[C@H](CO)[C@@H](c2ccccc2)C12CN(C(=O)c1ccc3c(c1)OCO3)C2`, 1.08 ± 0.056; that for `CNC(=O)C[C@@H]1CC[C@H]2[C@@H](COC[C@@H](O)CN2Cc2ccccc2F)O1`, 1.11 ± 0.029. Under `Cc1ccccc1S(=O)(=O)N1C[C@@H]2N[C@H](C1)[C@@H]2c1ccc(/C=C/c2ccccc2)cc1` stands 0.771 ± 0.028; under `COCCNC(=O)[C@@H]1[C@@H](CO)[C@@H]2Cn3c(cccc3=O)[C@H]1N2Cc1cccc(Cl)c1`, 1.052 ± 0.01.

`COc1ccc(S(=O)(=O)Nc2ccc3c(c2)CC(=O)N([C@@H](C)CO)C[C@H](C)[C@@H](CN(C)C(=O)Nc2c(C)noc2C)O3)cc1` yielded a viability index of 1.032 ± 0.0071. Under `CN1C(=O)c2cc(NC(=O)c3cnccn3)ccc2OC[C@@H]2O[C@H](CC(=O)N[C@H]3CCN(Cc4ccccc4)C3)CC[C@H]21` stands 1.12 ± 0.092; under `C[C@@H]1CN([C@@H](C)CO)C(=O)c2cc(NC(=O)C3CC3)ccc2O[C@@H]1CN(C)S(=O)(=O)c1ccccc1`, 1.01 ± 0.04. In the case of `CCCNC(=O)N1C[C@@H](O)COC[C@H]2O[C@@H](CC(=O)OC)CC[C@@H]21`, the viability index stood at 1.14 ± 0.053. Under `CO[C@H]1CC[C@H]2CCN(C)C(=O)[C@H](C)CN(C)C(=O)c3cc(C#N)ccc3OC[C@H]1O2` stands 1.03 ± 0.05; under `O=C(NCC[C@@H]1CC[C@@H](NC(=O)C2CCOCC2)[C@H](CO)O1)c1cc(Cl)cc(Cl)c1`, 0.964 ± 0.1; under `O=C(c1cccc(F)c1)N1CCCCN2[C@@H](CO)[C@H](c3ccc(C#CC4(O)CCCC4)cc3)[C@@H]2C1`, 1.07 ± 0.054. The result for `C[C@H]1CN([C@@H](C)CO)C(=O)c2ccccc2-c2ccccc2CO[C@@H]1CN(C)Cc1ccccc1C(F)(F)F` reads 0.843 ± 0.028; that for `CO[C@H]1CC[C@@H]2CCOc3ccc(C#N)cc3C(=O)N(C)C[C@@H](c3ccccc3)CC(=O)N(C)C[C@H]1O2`, 1.04 ± 0.024.

`CN1C[C@@H]2[C@H](c3ccccc31)[C@@H](CO)N2Cc1ccccc1Cl` registered a viability index of 1.01 ± 0.035. The result for `CN1C(=O)c2cc(NC(=O)Cc3cccs3)ccc2OC[C@@H]2O[C@@H](CC(=O)NCC3CCCCC3)CC[C@@H]21` reads 1.11 ± 0.068; that for `COc1ccccc1-c1ccc([C@H]2[C@@H](CO)N3CCCCN(C(=O)c4cccnc4)C[C@H]23)cc1`, 0.9761 ± 0.0016; that for `CO[C@H]1CN(C)C(=O)c2cc(NC(=O)CC(F)(F)F)ccc2OC[C@@H](C)N(CC2CC2)C[C@@H]1C`, 1.06 ± 0.02.

On to `COc1ccccc1NC(=O)N1C[C@@H](O)COC[C@H]2O[C@H](CC(=O)N3CCC(Cc4ccccc4)CC3)CC[C@@H]21`, for which the viability index stood at 1 ± 0.15.

In turn, `O=C(C[C@H]1C=C[C@@H](NC(=O)Nc2ccccc2F)[C@@H](CO)O1)NCc1ccc(-c2ccccc2)cc1` had a viability index of 1.06 ± 0.033. The result for `COc1ccccc1CNC(=O)C[C@@H]1CC[C@H]2[C@H](COc3ccc(NC(C)=O)cc3C(=O)N2C)O1` reads 1.05 ± 0.08. Under `COc1ccc2c3c([nH]c2c1)[C@H](CO)N(C[C@]31CCN(CC2CCOCC2)CC1)C(=O)Nc1ccc(F)cc1` stands 0.99 ± 0.053; under `Cc1ccc(S(=O)(=O)N(C)C[C@@H]2Oc3cc(C#CC4CCCC4)ccc3S(=O)(=O)N([C@H](C)CO)C[C@@H]2C)cc1`, 0.943 ± 0.17; under `CO[C@H]1CC[C@@H]2CCN(C)C(=O)[C@@H](C)CN(C)C(=O)c3cc(C#N)ccc3OC[C@H]1O2`, 1.036 ± 0.0093. In turn, `Cc1cccc(-c2ccc([C@@H]3[C@@H]4CN(C(=O)c5ccncc5)C[C@H]3N4)cc2)c1` displayed a viability index of 1.09 ± 0.12. In the case of `COCC(=O)N1C[C@@H]2[C@H](c3ccccc31)[C@@H](CO)N2Cc1cc(F)ccc1F`, the viability index stood at 0.985 ± 0.022. Turning to `COc1ccc2c3c([C@H](CO)N(C[C@]33CN(C3)C(C)=O)C(=O)c3ccncc3)n(C)c2c1`, the viability index worked out at 1.01 ± 0.062. `C[C@@H]1CN([C@@H](C)CO)C(=O)Cc2cc(NC(=O)CCCCCC(=O)Nc3ccccc3N)ccc2O[C@H]1CN(C)S(=O)(=O)c1cccs1` displayed a viability index of 0.993 ± 0.02. The result for `CO[C@H]1CC[C@H]2CCN(C)C(=O)CCCN(C)C(=O)c3cc(C#N)ccc3OC[C@@H]1O2` reads 0.968 ± 0.026; that for `CC(C)NC(=O)N1[C@@H](CO)[C@H](c2ccccc2)C12CN(C(=O)c1ccccn1)C2`, 1.05 ± 0.016. The result for `CO[C@@H]1CC[C@@H]2CCN(C)C(=O)CCCN(C)C(=O)c3cc(C#N)ccc3OC[C@H]1O2` reads 0.935 ± 0.043; that for `CC(C)NC(=O)N(C)C[C@@H]1Oc2ccc(NC(=O)Cc3ccccc3)cc2CC(=O)N([C@H](C)CO)C[C@H]1C`, 0.978 ± 0.075. The compound `COc1ccc2c3c([nH]c2c1)[C@H](CO)N(C[C@]31CN(CC2CCOCC2)C1)C(=O)Nc1c(C)noc1C` had a viability index of 0.9942 ± 0.0039.

With `C/C=C/c1ccccc1[C@H]1[C@@H](C#N)N(C(=O)CN2CCOCC2)[C@@H]1CO`, the viability index is 1.1 ± 0.056.
